Measured values taken from PubChem BioAssay AID504339 (National Center for Advancing Translational Sciences (NCATS), 2011).
About 17,000 (4.4%) of roughly 390,000 compounds were called active. Inconclusive means that the source gave no clear call. Such entries were picked first, then a sample of the others. The call rests on the fitted dose curve; in most records, active means well fitted inhibition curve with a large enough effect; inconclusive means small, poorly fitted or top-dose-only effect; inactive means no such curve, though single readings can be large or run the other way. Where the call is inconclusive, the potency comes from a doubtful curve fit. More than one record can exist for a structure, and the calls need not agree.

Target: Lysine-specific demethylase 4A (Homo sapiens) (UniProt O75164)
Sequence of UniProt O75164 (O75164 whole entry, looked up, the tested form may be a part): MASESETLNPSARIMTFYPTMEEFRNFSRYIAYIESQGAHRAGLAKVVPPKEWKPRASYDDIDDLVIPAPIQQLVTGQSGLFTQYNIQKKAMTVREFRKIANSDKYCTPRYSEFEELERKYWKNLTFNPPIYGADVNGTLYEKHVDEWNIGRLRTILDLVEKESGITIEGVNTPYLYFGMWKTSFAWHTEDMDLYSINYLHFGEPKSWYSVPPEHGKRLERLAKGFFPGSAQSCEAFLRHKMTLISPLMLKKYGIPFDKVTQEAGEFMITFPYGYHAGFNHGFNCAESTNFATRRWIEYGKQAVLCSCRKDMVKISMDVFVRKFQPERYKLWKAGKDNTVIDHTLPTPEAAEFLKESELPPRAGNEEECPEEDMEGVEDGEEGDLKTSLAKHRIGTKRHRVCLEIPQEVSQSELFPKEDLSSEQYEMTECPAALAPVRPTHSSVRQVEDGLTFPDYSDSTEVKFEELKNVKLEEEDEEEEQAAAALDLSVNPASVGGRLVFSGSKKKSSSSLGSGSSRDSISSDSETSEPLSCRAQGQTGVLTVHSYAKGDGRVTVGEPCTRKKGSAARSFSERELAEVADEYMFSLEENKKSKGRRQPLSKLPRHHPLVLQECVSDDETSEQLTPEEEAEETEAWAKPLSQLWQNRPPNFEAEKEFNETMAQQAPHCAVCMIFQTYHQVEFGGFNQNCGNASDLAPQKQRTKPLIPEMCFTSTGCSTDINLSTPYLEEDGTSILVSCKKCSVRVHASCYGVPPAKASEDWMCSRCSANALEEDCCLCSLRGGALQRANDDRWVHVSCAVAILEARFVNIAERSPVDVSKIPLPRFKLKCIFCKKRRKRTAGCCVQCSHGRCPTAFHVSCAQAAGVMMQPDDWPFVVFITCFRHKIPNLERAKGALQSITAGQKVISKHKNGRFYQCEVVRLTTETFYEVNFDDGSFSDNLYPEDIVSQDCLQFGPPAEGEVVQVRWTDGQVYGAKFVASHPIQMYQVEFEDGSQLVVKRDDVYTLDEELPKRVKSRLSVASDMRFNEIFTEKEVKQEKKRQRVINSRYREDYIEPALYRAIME
Experiment: qHTS Assay for Inhibitors of JMJD2A-Tudor Domain; further: nearly all actives have a fitted effect of over 50% in size
Conditions: AlphaScreen JMJD2A-Tudor / H3K4me3 peptide binding; activity change, negative = inhibition: at 114 µM (top of the series)
On the % scale 0 is the no-effect control and ±100 the full control effect; potency means the concentration at half of the fitted maximal effect; tags describe the fitted curve by direction and shape.

Potency, inconclusive:
Cc1cc(C)n(-c2nc(N(c3ccccc3)c3ccccc3)nc(-n3nc(C)cc3C)n2)n1 63.1 µM [inhibitor, partial curve, poor fit]
Cn1cccc1CNC(=O)Nc1ccc(Cl)cc1 79.4 µM [inhibitor, partial curve]
N#CC(C#N)=C1C=CC=CN1/C(=C\c1ccccc1)C(=O)c1cccs1 50.1 µM [inhibitor, partial curve]
CC(=O)c1cccc(NC(=O)c2sc3nc4n(c(=O)c3c2C)CCCC4)c1 22.4 µM [inhibitor, full curve, poor fit]
O=C(N/N=C/c1sc(=O)n(Cc2ccc(Br)cc2)c1Cl)c1ccco1 50.1 µM [inhibitor, partial curve]
CCCCCCn1c(SCC(=O)OC)nc2c1c(=O)[nH]c(=O)n2C 70.8 µM [inhibitor, partial curve]
Cc1sc2ccccc2[n+]1CC(=O)c1ccccc1 70.8 µM [inhibitor, partial curve]
CCOC(=O)C(=NCCOC)NNc1cc(Cl)ccc1Cl 39.8 µM [inhibitor, partial curve]
CCOc1cc(C2c3c(-c4cc(C)ccc4O)n[nH]c3C(=O)N2CCCOC(C)C)ccc1O (stereo unspecified) 63.1 µM [inhibitor, partial curve, poor fit]
CCN1CCc2c(sc(NC(=S)NC(=O)c3cccc(F)c3)c2C(N)=O)C1 50.1 µM [inhibitor, partial curve, poor fit]
COC(=O)CCc1sc(Nc2ccc(Br)cc2)nc1-c1ccc(OC)cc1 50.1 µM [inhibitor, partial curve]
CSc1nncc(/C(C)=N\Nc2ccccc2)n1 50.1 µM [inhibitor, partial curve]
OC(C#CCN1CCOCC1)(c1ccccc1)C1CCCCC1 (stereo unspecified) 89.1 µM [inhibitor, single point]
CCOc1ccc(-n2c(=S)sc3c(=O)[nH]c(SCC(=O)NCc4ccco4)nc32)cc1 56.2 µM [inhibitor, partial curve]
CC1(C)CC(=O)C(Br)=C(O)C1 89.1 µM [inhibitor, partial curve]
Oc1ccccc1-c1nc(-c2cccs2)c(-c2cccs2)[nH]1 39.8 µM [inhibitor, partial curve]
CCn1c(=O)cc(OCC(=O)NCC2CCCO2)c2ccccc21 (stereo unspecified) 70.8 µM [inhibitor, partial curve, poor fit]
COc1ccc(Nc2nc(C(=O)NCc3ccco3)cs2)cc1 44.7 µM [inhibitor, partial curve]
COc1cccc(NCc2cc3c(C(C)(C)C)nn(-c4ccccc4)c3[nH]c2=O)c1 25.1 µM [inhibitor, partial curve]
Nc1nc(NC(=O)Cc2ccccc2)nn1-c1ccccc1 89.1 µM [inhibitor, single point]
COc1ccc(-c2nc3nc(C)cc(C)n3c2Nc2c(C)cccc2C)cc1 50.1 µM [inhibitor, partial curve]
O=C1OCCN1C(=O)[C@H]1[C@H](c2ccc([N+](=O)[O-])cc2)C(c2cccc(Cl)c2)=NN1c1ccccc1 39.8 µM [inhibitor, partial curve]
O=C1C=C(c2ccc(O)cc2)C[C@@H](c2ccc3c(c2)OCO3)C1 79.4 µM [inhibitor, partial curve]

Potency, active:
Cn1cccc1/C=N/N1CCN(Cc2ccc(Cl)cc2)CC1 50.1 µM
OC(COCC1COc2ccccc2O1)CN1CCN(c2ccccn2)CC1 (stereo unspecified) 44.7 µM
S=C(c1ccc(-c2cccc(Cl)c2)o1)N1CCCCC1 28.2 µM
CN1CCN(Cc2nc3ccccc3c(=O)n2Cc2nc(-c3ccc([N+](=O)[O-])cc3)cs2)CC1 20 µM
CCOC(=O)c1c(-c2ccccc2)csc1NC(=O)C(C)NCCCN1CCOCC1 (stereo unspecified) 50.1 µM
Cc1ccnc(NS(=O)(=O)c2ccc(NC(=O)C3COc4ccccc4O3)cc2)n1 (stereo unspecified) 17.8 µM
Cc1cccc(-n2ccnc2SCC(=O)Nc2cccc3ccccc23)c1 31.6 µM
c1ccc2c(c1)[nH]c1nc(SCCN3CCOCC3)nnc12 79.4 µM

Potency, inactive:
COc1ccc(-n2c(N)c(C(=O)NCc3ccco3)c3nc4ccccc4nc32)c(OC)c1
CCCCCC(=O)Nc1cccc(C2=NOC3(C2)C[C@@H](C(N)=O)N(C(=O)c2ccc(Cl)cc2)C3)c1 (stereo partly specified)
Cc1ccc(Cn2cc(S(=O)(=O)c3cccc(C)c3)c(=O)c3cc(F)c(N4CCOCC4)cc32)cc1
COc1cccc(Cn2c(SCC(=O)N3CCN(c4ccc(F)cc4)CC3)nc3ccccc32)c1
CC(=O)Nc1ccc(C2=NNC(=NCC3CCCO3)SC2)cc1 (stereo unspecified)
Fc1cnc(N2CCN(c3ccccc3)CC2)nc1N1CCN(c2ccccc2)CC1
COc1cc2cc(C#N)c(SCC(=O)OC(C)C)nc2cc1OC
O=C(CNC(=O)c1ccccc1)OC(CCc1ccccc1)C(=O)Nc1cc(C(F)(F)F)ccc1Cl (stereo unspecified)
O=C1CC(c2c(F)cccc2Cl)C2=C(COC2=O)N1 (stereo unspecified)
O=C(CCN1CCN(C(=O)c2ccccc2)CC1)c1ccc(Br)cc1
COc1ccc(S(=O)(=O)Oc2c(OC)cc(C(=S)N3CCOCC3)cc2OC)cc1
CCOc1ccc(-c2cn3c(n2)sc2cc(C(=O)NCCCN4CCCCCC4)ccc23)cc1

Activity change, negative = inhibition, inactive:
O=C(Cn1nnc2ccccc2c1=O)N[C@H](C(=O)O)c1ccccc1 -17.6% [at 11.4 µM]
O=S(=O)(c1ccc2ccccc2c1)N1CCCCCC1 -3.76% [at 11.4 µM]

Activity change, negative = inhibition, inconclusive:
S=c1[nH]nc(-c2cccs2)n1Cc1ccccc1 -98.2% [inhibitor]
